To fix the notation:
B1: LINE1-mini (parent)
chain: GGCAGAGCUCAACACAGCGUGGCAAAGUGGCUGUGGCUAGACUGCC

The source gives no read counts; variants with many changes may rest on few reads.

This data set covers variants of B1. In words: self-cleavage, relative activity (ratio to wild type); higher = more cleavage; in vitro, sequencing; the parent is a self-cleaving ribozyme.
With GGCAGAGCUCAGCACAGCGUGGCAAACUGGCAUUGGCUAUACUGCC [A12G G27C U32A G33U G40U], the self-cleavage worked out at 0.03.

For the variant GGCAGAGCUCAGCACAGCGUAGCGAAGUGGCUGUGGCUAGACUGCC [A12G G21A A24G], the self-cleavage was found to be 0.02.

Consider GGCAGAGCUCAGCACAUCGUGGCAAAGUGGCUGUGGCUAAACUGCC [A12G G17U G40A], for which the self-cleavage was 0.

Consider GGCAGAGCUCAGCACAGAGUGGCAAAGUGGUUGUGUCUAGACUGCC [A12G C18A C31U G36U], for which the self-cleavage is 0.02.

Regarding GGCAGAGCUCAGCACAGCGUGGCAAAAUGGCUGAGGCUAGACUGAC [A12G G27A U34A C45A], the self-cleavage was 0.04.

With GGCAGAGCUCAGCACAGCGUGGGAAAGUUGCUGUGGCUAGACUACC [A12G C23G G29U G44A], the self-cleavage is 0.02.

Turning to GGCAGAGCUCAGCACAGCGUGGCAAAGUGGUUCUGGCUAGACUACC [A12G C31U G33C G44A], the self-cleavage was 0.02.

Take GGCAGAGCUCAGCACAGCGUGCCAAAGUGGAUGUGGCUAGACUGCC [A12G G22C C31A]: the self-cleavage is 0.

For the variant GGCAGAGCUCAGCACAGUGCGGGAAAGUGGCUGUGGCUAGACUGCC [A12G C18U U20C C23G], the self-cleavage turned out to be 0.01.

On to GGCAGAGCUCAGCACAGCGUGGCAAAGUGGCUGUGGCUAGACUCAA [A12G G44C C45A C46A], for which the self-cleavage came out at 0.08.

As for GGCAGAGCUCAGCAAAGCUUUGCAAAGUGGGUGUGGCGAGACUGCC [A12G C15A G19U G21U C31G U38G], the self-cleavage is 0.12.

Regarding GGCAGAGCUCAGCACAGCGUGGCAAACUGGCUAUGGCUAGACUGCA [A12G G27C G33A C46A], the self-cleavage was found to be 0.11.

Turning to GGCAGAGCUCAGCACAGCGUGGCAAAGUGGCUAUGGGUAGAAUGCC [A12G G33A C37G C42A], the self-cleavage was 0.03.

As to GGCAGAGCUCAGCACAGCGUGGCAAAAUCGCUGUGGCUCGAUUGCC [A12G G27A G29C A39C C42U], the self-cleavage is 0.03.

As to GGCAGAGCUCAGCACAGCGUGGCAAAGUGGCUUAGGCUAGUCUGCC [A12G G33U U34A A41U], the self-cleavage came to 0.01.

For GGCAGAGCUCAGCACAGUGUGGCCAGGUGGCUGUUGCUAGACUGCA [A12G C18U A24C A26G G35U C46A], the self-cleavage is 0.03.

Regarding GGCAGAGCUCAGCACAGCGCGGCCAAGUGGCUGUGGGUAGACUGCC [A12G U20C A24C C37G], the self-cleavage worked out at 0.01.

As for GGCAGAGCUCAGCACAGCGUUGCAUAGUGGCUGUGGCUAGACUGCC [A12G G21U A25U], the self-cleavage amounted to 0.02.

With GGCAGAGCUCAGCACAAUGUGGCGAAGUGGCUGUGGCUUGACUGCC [A12G G17A C18U A24G A39U], the self-cleavage came out at 0.

Consider GGCAGAGCUCAGCACAGCCUGGGAAAGUGGCUGUGGCUAGACUGCC [A12G G19C C23G], for which the self-cleavage came to 0.

Consider GGCAGAGCUCAGCACAGCGUGGCAAAUUGGCUGUGGCUAGACGGCC [A12G G27U U43G], for which the self-cleavage came to 0.26.

With GGCAGAGCUCAGAAGAGCGUGGCAAAGUGGCUGUGGCUAGACUGCC [A12G C13A C15G], the self-cleavage came out at 0.02.

On to GGCAGAGCUCAGCACAGCUUGGCAAACUGGCUGAGGCUAGACUGCC [A12G G19U G27C U34A], for which the self-cleavage was determined as 0.

On to GGCAGAGCUCAGCACAGCGCUGCAAAGUGGCUGUGGCGAUACUGCC [A12G U20C G21U U38G G40U], for which the self-cleavage was 0.01.

GGCAGAGCUCAGCACAGCGUGGCAAAGUAGCUAUGGAUAGACUGCC [A12G G29A G33A C37A]: the self-cleavage amounted to 0.05.

On to GGCAGAGCUCAGCACAACGUCGCAAAGUGGCUGUGACUAGACUGGC [A12G G17A G21C G36A C45G], for which the self-cleavage stood at 0.03.

With GGCAGAGCUCAGCACAGCGUGGAAAAGCGGCUGUGGCUAGACUGCC [A12G C23A U28C], the self-cleavage turned out to be 0.01.

For the variant GGCAGAGCUCAGCACAGCGUGGAAAAGAGGCUGUGGCUAGACUGCC [A12G C23A U28A], the self-cleavage is 0.01.

Turning to GGCAGAGCUCAGCACAGCGUGGCAAAUUGGCUUUAGCUAGGCUGCC [A12G G27U G33U G35A A41G], the self-cleavage stood at 0.01.

For GGCAGAGCUCAGCACAGCGUGGCAAGGUGGCAGAUGCUAGUCUGCC [A12G A26G U32A U34A G35U A41U], the self-cleavage was determined as 0.11.

GGCAGAGCUCAGCACAGGGUGUCAAAGCGGCUGUGGCAAGACUGCC [A12G C18G G22U U28C U38A]: the self-cleavage was found to be 0.02.

Turning to GGCAGAGCUCAGCACAGUCUGGCAAAGUGGCUGUGGCUAGACUGCC [A12G C18U G19C], the self-cleavage turned out to be 0.

GGCAGAGCUCAGUACAGCAUUGCAAAGUGGCUGUGGCUAGACUGCC [A12G C13U G19A G21U]: the self-cleavage is 0.04.

GGCAGAGCUCAGCAUAGCGUGGCAAAGUGGCUGUGGCUGGACUGCC [A12G C15U A39G]: the self-cleavage turned out to be 0.

Consider GGCAGAGCUCAGCACAGCGUGGCAAAGUGGCUUUGGUUAGACUGCC [A12G G33U C37U], for which the self-cleavage is 0.14.

GGCAGAGCUCAGCACAGCGUGGCAAAGUGGCUUUGUCUAGACUGCC [A12G G33U G36U]: the self-cleavage worked out at 0.06.

For GGCAGAGCUCAGCACAGCCUGACAAAGUGGCUGUGGCUAGACUGGC [A12G G19C G22A C45G], the self-cleavage turned out to be 0.

GGCAGAGCUCAGCACAGCGCGGCAAAAUGGCUGUCGCUAGACUGCC [A12G U20C G27A G35C]: the self-cleavage came to 0.02.

Turning to GGCAGAGCUCAGCACAGCGUGGCAAAGUGGCUGUGGCUAGGGUGCC [A12G A41G C42G], the self-cleavage came out at 0.12.

As for GGCAGAGCUCAGCACAGCGUGGCAAAGUGGCUGUGGUUAGAGUGCC [A12G C37U C42G], the self-cleavage is 0.04.

With GGCAGAGCUCAGCACAGCGUGGCAAUGUGGCUGUGGCUAGAAUGCC [A12G A26U C42A], the self-cleavage stood at 0.01.

Consider GGCAGAGCUCAGUAUAGAGUGGCAAAGUGGCUGUGUCUAGACUUCC [A12G C13U C15U C18A G36U G44U], for which the self-cleavage amounted to 0.02.

With GGCAGAGCUCAGCACAGCGUCGCAAAGUGGCUGUGGUUAGACUGCC [A12G G21C C37U], the self-cleavage was 0.04.

With GGCAGAGCUCAGCACAGCGUGGGAAAGUGGCAGUGGCUAGACUGUC [A12G C23G U32A C45U], the self-cleavage is 0.07.

As for GGCAGAGCUCAGCACAGCGUUGCAAAGUGGCUGUGGGUAGACUGCC [A12G G21U C37G], the self-cleavage is 0.03.

As for GGCAGAGCUCAGCACAACGUGGCAACGUGGCUGUGGGUAGACUGCC [A12G G17A A26C C37G], the self-cleavage came out at 0.01.

Consider GGCAGAGCUCAGGACAGCGUGGCAAAGUGGCUGUGGCUAUACUGCC [A12G C13G G40U], for which the self-cleavage came out at 0.14.

As for GGCAGAGCUCAGGACAGCGUGGCAAAGUGGCUGUGGCUACACUGAG [A12G C13G G40C C45A C46G], the self-cleavage was 0.02.

With GGCAGAGCUCAGCAAAGCGUGGCAAAGCGGCUGUGGCUAGACUGCC [A12G C15A U28C], the self-cleavage turned out to be 0.03.

GGCAGAGCUCAGCACAGGGUGGCAAAGUGGCUCUGGCUAGCCUGCC [A12G C18G G33C A41C]: the self-cleavage worked out at 0.01.

GGCAGAGCUCAGCACAGCGUGGCAAAGUGGCUCUGGCUAGCCUGCC [A12G G33C A41C]: the self-cleavage is 0.01.

On to GGCAGAGCUCAGCACAGCGGUGCAAAGUGGCUGUGGCUAGACUGCC [A12G U20G G21U], for which the self-cleavage was found to be 0.04.

Regarding GGCAGAGCUCAGCACAGCGUGGCAAAGUGUCUGUGGCUUGACUGCC [A12G G30U A39U], the self-cleavage turned out to be 0.06.

As for GGCAGAGCUCAGCACAGCGUGGCAUAGUGGAUGUGACGAGCCUGCC [A12G A25U C31A G36A U38G A41C], the self-cleavage stood at 0.

Take GGCAGAGCUCAGCACAGCAUGGAAAAGUGGCUGUGCCUAGACUGCC [A12G G19A C23A G36C]: the self-cleavage was 0.02.

With GGCAGAGCUCAGCACAGCGUGACAAAGUGCCUGUGGCUAGACUGGC [A12G G22A G30C C45G], the self-cleavage worked out at 0.03.

Values taken from the RNAGym collection of RNA variant scans (doi:10.7554/elife.90254).
